Assay results published in the supplement of paper PMC11417369.
This is one part of the list.

The sequences below were run on PF3D7_0420300 AP2 domain 1 (GST-tagged) (assay: gcPBM binding intensity (ln(normalized median fluorescence intensity)); higher = stronger DNA binding).
Outline: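 For binding intensity, the highest Masliner-normalised natural-log median intensity across replicate spots of either probe orientation was taken. Protein bound to the array was stained with Alexa488 anti-GST antibody and scanned at 488 nm. The protein, GST-tagged P. falciparum DNA-binding domains from E. coli at about 25 μg on average, had been applied for 1 h to an Agilent 4 × 180k array of primer-extended double-stranded 36-bp intergenic genomic probes and negative controls.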

Sequence | gcPBM binding intensity (ln)
AATACACACCTGTGGGTGCTTATAATAAGCCACAAA | 9.35
TATTTTTTTATTTATTGTACTTTAAAAAAAATTAAA [XGTACX_site6167] | 8.75
TAACAAATATTATTTTGTACATAATATATATATATA [XGTACX_site6898] | 9.03
TTATAAAAATATTACGCACACACAAACTTATTCATT [CACACA_site1970] | 9.76
ATATATTTATATTATACACACAAAAATATTTTGTAT [CACACA_site6262] | 9.4
TATATATATTAATTTATTTATTTGTTTATTTATTTA [CACACA_negctrl_site185] | 9.27
ATATAATAATATTATACATGCAAAATATGTTCTTCA [TGCATGCA_site115] | 9.19
AGACTATCATTTTTTTAACACACAAAAAAAATAAAA [CACACA_site9173] | 9.27
ATCGCATATACATTATATTTTATAATAATTATTTTT [GTGCAC_negctrl_site48] | 9.51
ATAATGTATATTATTGCACACATATATAAAATTATG [CACACA_site8280] | 9.36
TAAATAAATACATACACACACATACCTATATTTATA [CACACA_site7466] | 9.93
TTTTATAAAAACAAAAACAAAGGCACTTTCTAAAGA [XGTACX_negctrl_site130] | 9.19
AATATAAATATAAATATAAATATATATATATATATA [TGCATGCA_negctrl_site603] | 8.91
TGTATACACATATGTACACACATATAGATGTATATG [CACACA_site7447] | 9.52
AATTTTATTTAAAGTGCATGTAAAATTAAAACTTTT [TGCATGCA_site989] | 8.88
AAAGACAAAAGGAATTGTACATAATATATAAAATAT [XGTACX_site2923] | 9.34
CACAAAAGTAAGCACGCACACACAACATGAAATAAA [CACACA_site7938] | 9.87
CATTTTTTGTAAAATCGTACATATACATAAAGTGGT [XGTACX_site3423] | 9.08
GGGAAACGATTTAATACACACACGTATTATATATAT [CACACA_site1160] | 9.64

Sequence | gcPBM binding intensity (ln)
ATATAAAATATGAGTAGTACATATTTTCTCATCTTA [XGTACX_site8595] | 9.07
TATGAATTTATCTACAACATTTGAAATAAATTAAAA [CACACA_negctrl_site79] | 8.74
AACTAATAGTATATTACATGCAAAAGTAAAAGTAAA [TGCATGCA_site411] | 9.5
CTCACAATACTTACATGTACATATTATATATATAAA [XGTACX_site1880] | 9.4
GTTGAAATAAAATTAGTGCATATATAAATATATATA | 9.05
ACTGAAAAAAGAAATACACACATTCTGGATCAGATA [CACACA_site7760] | 9.56
TCATTCTTGTGTTTATGTACACATATTTATATTGTA [XGTACX_site710] | 9.64
TTATCATTTTTGGAATGTACTTACATTAAATATTTA [XGTACX_site4034] | 9.09
TATATGCAAAATGTCACACATGTGATAAATACATAT [CACACA_site4302] | 9.48
GGAACCATCCAAAAAAAAAAAAAAAATAATAATAAT [CACACA_negctrl_site383] | 8.86
ACATGTACAGAAATTTATATATATATATATATATAT [CACACA_negctrl_site1584] | 9.18
ATTATTATGTATTGCCGTACACATATTATCACAGAA [XGTACX_site3740] | 9.34
TCTTCATATATAATTGTACACACAAAAACGACATTG [CACACA_site8645] | 9.62
TATTATAATTAATATACACACGCTTATATATATATA [CACACA_site75] | 9.36
TATAAATAAACATTTACACACTCTTATAATAAATAT [CACACA_site1679] | 9.25
ATGCAAACTAAAAGACGTACAGAAAAGTATCATACT [XGTACX_site8766] | 9.26
TGATTATTTTATATTTGTACACATATCATATAAAAA [XGTACX_site5868] | 9
ACATAATATTGAAGAAGTACAAATTTTATTTATTAT [XGTACX_site4113] | 9.17
ACGTTTTTGAGTAGTACACACACAATAAGGATGGAT [CACACA_site9044] | 9.77

Sequence | gcPBM binding intensity (ln)
CCTCATATTATAGACACACACAAAAAAAATAAAAAA [CACACA_site180] | 9.74
AATATAATATATATTAGTACATATATATATATATAT [XGTACX_site870] | 9.06
TCATTATTATATAATTGTACATAATAATTATATCCA [XGTACX_site1801] | 9.06
ATGTATGTGTATATATGTACATAATATATATCTTTT [XGTACX_site8666] | 9.38
CCCAGGAATATAAAATGTACATAAAAAATACAAATT [XGTACX_site1708] | 9.37
AGTACATTATAGAATACACACCTATACATTTATATA [CACACA_site6391] | 9.46
TAAGCACAAGCACAAGCACACATTTATATATATATA [CACACA_site883] | 9.24
TTTTTTTTTTTTGGATGTACTTAATGAAAATGTTAC [XGTACX_site8980] | 8.93
TATTTGTGAAGAAATTGTACTCATATCTACATTTAT [XGTACX_site2245] | 9.12
TCTTTGTATATATGTTCATTTGTAATATATATTCAT [TGCATGCA_negctrl_site467] | 9.42
ATAATAATATAAAAATGTACATATATTTATAATTGT [XGTACX_site3429] | 9.23
ATTTATTGACTATTTACACACATATTTATTAAAATA [CACACA_site4980] | 9.5
TACGCTCCCAGACACACACACACACCGATATAATAT [CACACA_site8098] | 10.3
TATTATATTATGTGATGTACATATTTATATAGGCCC [XGTACX_site4746] | 9.06
TATTACATACCTTATTGTACAAATTATATATTAAAG [XGTACX_site7334] | 9.08
ATTCAGTTATATAATACACACATATATTGACATTAT [CACACA_site2723] | 9.5
ACAGTATCTGGTAGCTGTACGAGTCGTAGAGAGTAG [XGTACX_site2041] | 9.3
AGGTGCAAAAATAAAACATGCAAAAATAAAAATGAA [TGCATGCA_site502] | 9.35
AATAATTAAATAAGAGTGCATGAAACAGGAAATTTC | 9.73
